About 6,400 (1.6%) of roughly 410,000 compounds were called active. Inconclusive results, whose numbers are uncertain, are shown with a selection of clear calls. Calls come from the whole dose curve; as a rule, active = well fitted inhibition curve with a large enough effect; inconclusive = small, poorly fitted or top-dose-only effect; inactive = no such curve, though single readings can be large or run the other way. No potency is given beside an inconclusive call; the fits are too rough.
These molecules were tested against Glucagon-like peptide 1 receptor (Homo sapiens) (UniProt P43220) (assay: qHTS of GLP-1 Receptor Inverse Agonists (Inhibition Mode)). Settings: HEK293 GLP-1R CRE-luciferase, luminescence, 24 h, GLP-1R form is constitutively active; activity change, negative = inhibition: at 38.3 µM (top of the series) unless noted.
Sequence of UniProt P43220 (P43220 whole entry, looked up): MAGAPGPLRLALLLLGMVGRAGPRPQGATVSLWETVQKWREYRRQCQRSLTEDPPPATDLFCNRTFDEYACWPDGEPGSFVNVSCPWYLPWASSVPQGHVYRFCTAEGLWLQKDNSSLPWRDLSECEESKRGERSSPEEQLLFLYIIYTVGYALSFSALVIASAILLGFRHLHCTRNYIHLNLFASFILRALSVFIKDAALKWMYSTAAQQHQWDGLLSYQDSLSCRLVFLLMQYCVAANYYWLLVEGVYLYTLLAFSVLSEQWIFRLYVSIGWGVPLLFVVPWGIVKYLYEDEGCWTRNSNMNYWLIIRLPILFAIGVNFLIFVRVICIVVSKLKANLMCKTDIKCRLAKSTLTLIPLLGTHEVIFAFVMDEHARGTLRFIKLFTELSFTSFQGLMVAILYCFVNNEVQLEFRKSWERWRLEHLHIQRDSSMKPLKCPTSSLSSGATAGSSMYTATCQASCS
Procedure, shortened: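 Using stably transfected HEK293 (constitutively active GLP-1R, cAMP-luciferase reporter), compounds were incubated 24 hr and luciferase measured by luminescence.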
O=C(c1cccs1)C1C(c2ccc(Br)cc2)NC(=S)NC1(O)C(F)(F)F (centres undefined) was tested, and the Potency was inconclusive [inhibitor, partial curve, poor fit]. In the case of CCNc1nc(-c2ccc(OC(F)F)cc2)c(C)s1, the Potency is reported as inconclusive [inhibitor, single point]. For Cc1cc(C)cc(NC(=O)Cc2ccc(S(=O)(=O)N3CCCC3)s2)c1, the Potency was inconclusive [inhibitor, partial curve, poor fit]. With CCC(C)c1ccc(NC(=S)NCc2cccs2)cc1 (centres undefined) the Potency was inconclusive [inhibitor, single point]. With COc1ccc(NC(=O)c2cc(C3CCCCN3C(=O)C3CCCCC3)on2)c(C)c1 (centres undefined) the Potency was inconclusive [inhibitor, single point]. For CCCCNC(=O)C1CCN(Cc2ccc(OCc3ccccc3)c(OC)c2)CC1, the Potency was inconclusive [inhibitor, single point]. With N#Cc1c(N)[nH]c2ccc(Sc3ccccc3)cc12 the Potency was inconclusive [inhibitor, full curve, poor fit]. For CCOC(=O)[C@@H]1[C@H]2COc3ccc(Br)cc3[C@H]2N2C(=O)N(c3cccc(Cl)c3)C(=O)[C@]12C, the Potency was inconclusive [inhibitor, single point]. COc1ccc(COc2cc(-c3cccc(OC)c3)nc3ccc(NC(=O)c4cccnc4)cc23)cc1 was tested, and the Potency was active: 2.82 µM. In the case of O=C(Nc1cccc(Cl)c1)Nc1ccccc1C(=O)O, the Potency is reported as inconclusive [inhibitor, partial curve]. With Cc1ccc(NC(=O)Cn2nnnc2-c2ccccc2N)cc1 the “activity change, negative = inhibition” value was inactive: -23.2%. For Cn1nc(C(=O)N2CCN(c3ccc(Cl)cc3)CC2)c2c1-c1ccccc1SC2, the Potency was inconclusive [inhibitor, single point]. For Cc1ccc(OCC(O)CNC2CCCC2)cc1C (centres undefined), the Potency was inconclusive [inhibitor, partial curve, poor fit]. With CCOc1ccc(CC(=O)N/N=C/c2sccc2C)cc1 the Potency was inconclusive [inhibitor, partial curve, poor fit]. Cc1ccccc1C(=O)OCC(=O)N1CC(=O)Nc2ccccc21 was tested, and the “activity change, negative = inhibition” value was inactive: 6.56%. For COc1ccc(S(=O)(=O)NCC(c2cccnc2)N2CCN(Cc3ccccc3)CC2)cc1C (centres undefined), the Potency was inconclusive [inhibitor, single point]. For COc1ccc(Cl)cc1-c1cc(C(=O)Nc2ccc(C)c(NS(C)(=O)=O)c2)[nH]n1, the Potency was inconclusive [inhibitor, single point]. For CCOc1ccc2nc(N3CCN(C(=O)CS(=O)(=O)c4ccc(F)cc4)CC3)sc2c1, the Potency was inconclusive [inhibitor, partial curve, poor fit]. For CCNC(=S)N(CCc1c(C)[nH]c2ccc(C)cc12)Cc1cccnc1, the activity change, negative = inhibition was inconclusive: -37.4% [inhibitor]. With CC1Cc2ccccc2N1C(=O)c1cc2c(=O)n3ccccc3nc2n1C (centres undefined) the Potency was inconclusive [inhibitor, partial curve, poor fit]. For CCCCCCn1c(=O)n2n(c1=O)[C@@H]1CN(S(=O)(=O)c3ccc(C)cc3)C[C@]1(O)[C@@H](OC(=O)NCc1ccccc1)C2, the Potency was active: 11.2 µM. In the case of CCn1c(C(=O)N2CCC(C(=O)N3CCN(c4cccc(C)c4C)CC3)CC2)cc2sccc21, the Potency is reported as inconclusive [inhibitor, partial curve, poor fit]. Cc1ccc(NC(=S)NC2CCSc3ccccc32)cc1C (centres undefined) was tested, and the Potency was inconclusive [inhibitor, partial curve, poor fit]. With CC(C)c1ccc(S(=O)(=O)N2CCCCC2)cc1 the Potency was inconclusive [inhibitor, single point]. For CC1=NCCN1S(=O)(=O)c1c(C(C)C)cc(C(C)C)cc1C(C)C, the Potency was inconclusive [inhibitor, partial curve, poor fit]. COc1ccc(NC(=O)CNC(=O)CC23CC4CC(CC(C4)C2)C3)c(OC)c1 was tested, and the Potency was inconclusive [inhibitor, single point]. CC(C)c1ccc(N(CC(=O)NCCc2ccccc2)C(=O)c2csnn2)cc1 was tested, and the Potency was inconclusive [inhibitor, single point]. With Cc1cccc(-c2nc(SCCCOc3ccccc3Cl)n3[nH]c(=O)cc3n2)c1 the “activity change, negative = inhibition” value was inactive: 15.9%. With Cc1cc(N2CCN(c3ccccc3Cl)CC2)n2cc(-c3ccccc3)nc2n1 the Potency was inconclusive [inhibitor, full curve, poor fit]. For O=C(Nc1ccc(F)c(Cl)c1)N1CCN(C(=O)c2nsc3ccccc23)CC1, the “activity change, negative = inhibition” value was inactive: -22.2%. CCN(CC)CC#CC(O)(c1ccccc1)c1ccccc1 was tested, and the Potency was inconclusive [inhibitor, single point]. In the case of Cc1c(C(=O)Nc2cccc(Oc3ccccc3)c2)sc(=O)n1Cc1ccc(F)cc1, the Potency is reported as inconclusive [inhibitor, single point]. For O=C(CN(c1ccc(Br)cc1)S(=O)(=O)c1ccc(Cl)c([N+](=O)[O-])c1)NCC1CCCO1 (centres undefined), the Potency was inconclusive [inhibitor, single point]. In the case of CCOC(=O)C1CCN(C(=O)COC(=O)c2oc3ccc(OC)cc3c2C)CC1, the “activity change, negative = inhibition” value is reported as inactive: 8.72%. COc1ccc(Cl)cc1NC(=O)NCC1CCN(C(=O)OC(C)(C)C)CC1 was tested, and the Potency was inconclusive [inhibitor, partial curve, poor fit]. COc1cccc(/C=N/NC(=O)CNC(=O)c2cccs2)c1O was tested, and the Potency was inconclusive [inhibitor, single point]. CC(=O)N1N=C(c2ccc3ccccc3c2)OC12CCCC2 was tested, and the Potency was inconclusive [inhibitor, single point]. In the case of COc1cc(C=C2CCCC(=Cc3ccc(OCC4CO4)c(OC)c3)C2=O)ccc1OCC1CO1 (centres undefined), the Potency is reported as inconclusive [inhibitor, single point]. For Cc1ccc(NC(=O)C2CCCN(C(=O)c3ccc(Cl)cc3)C2)cc1 (centres undefined), the Potency was inconclusive [inhibitor, single point]. In the case of O=C(Nc1cc(Cl)cc(Cl)c1)Nc1cnccn1, the Potency is reported as inconclusive [inhibitor, single point]. For CCOc1ccc(CNC(=O)Cn2c(=O)c3cccn3c3ccc(F)cc32)cc1, the “activity change, negative = inhibition” value was inactive: 14.1%. COc1cccc(NC(=O)[C@H](Cc2ccccc2)NC(=O)[C@@H]2Cc3ccccc3CN2)c1 was tested, and the Potency was inconclusive [inhibitor, single point]. In the case of O=C(c1ccc2c(c1)CCC2)N1CCN(Cc2c(F)cccc2Cl)CC1, the Potency is reported as active: 10 µM. With CC1CCCC(C)N1S(=O)(=O)c1ccc(Cl)cc1 (centres undefined) the Potency was inconclusive [inhibitor, partial curve, poor fit]. For CCOc1ccc(OCC)c(NC(=O)C2CCCN(S(=O)(=O)c3ccc4c(c3)oc(=O)n4C)C2)c1 (centres undefined), the “activity change, negative = inhibition” value was inactive: 0.525%. O=C(Nc1ccc(Nc2ccncc2)cc1)c1ccc([N+](=O)[O-])cc1 was tested, and the Potency was active: 10 µM. For O=C(NC1CCCC1)c1cc(-c2ccccc2)nc2ccccc12, the Potency was inconclusive [inhibitor, single point]. For CC(C)CCC(O)(CCC(C)C)C(=O)NNc1ccccc1, the Potency was inconclusive [inhibitor, full curve, poor fit]. For Cc1ccc(NCc2cccn2-c2nnc(N3CCCCCC3)s2)cc1, the Potency was inconclusive [inhibitor, single point]. In the case of CN(C(=O)c1ccc(OC2CCN(CCc3ccccc3)CC2)cc1)C1CCOCC1, the “activity change, negative = inhibition” value is reported as inactive: -10.9%. With COc1cc(/C=C2\SC(=S)N(NS(=O)(=O)c3ccc(C)cc3)C2=O)cc(OC)c1OC the Potency was inconclusive [inhibitor, partial curve, poor fit]. With CCN(CC)CCCN(C(=O)Cn1nnc(-c2ccc(OC)c(OC)c2)n1)C(C(=O)NC(C)(C)C)c1ccc(F)cc1 (centres undefined) the Potency was inconclusive [inhibitor, single point]. In the case of CC(=O)c1sc(C(C)(C)C)cc1NC(=O)c1ccccc1C(=O)O, the “activity change, negative = inhibition” value is reported as inactive: 0.988%. With CC(=O)Nc1nnc(SCc2cc(=O)c3cc(C)ccc3[nH]2)s1 the “activity change, negative = inhibition” value was inactive: -1.99%. For Cc1ccccc1NC(=S)NC(NC(=O)COc1ccccc1)C(Cl)(Cl)Cl (centres undefined), the Potency was inconclusive [inhibitor, partial curve, poor fit]. For CC(=O)c1cc(CN2CCN(CCC(C)C)C(CCO)C2)cs1 (centres undefined), the Potency was inconclusive [inhibitor, full curve, poor fit]. COc1ccc(NC(=O)Cn2c(SCc3cccc(Cl)c3)nc3ccncc32)c(OC)c1OC was tested, and the “activity change, negative = inhibition” value was inactive: 5.71%. For Cc1nnc(NC(=O)c2nc(S(=O)(=O)Cc3ccccc3C)ncc2Cl)s1, the Potency was inconclusive [inhibitor, single point]. For CCOC(=O)c1c(NC(=O)C2C3C=CC(C3)C2C(=O)O)sc2c1CCC(C)C2 (centres undefined), the Potency was inconclusive [inhibitor, partial curve]. With O=C(COc1ccc(/C=N/NC(=O)c2cc3ccccc3o2)cc1Cl)Nc1ccccc1 the Potency was active: 4.47 µM. In the case of COc1ccc(C(C#N)=Cc2ccccc2OC)cc1, the Potency is reported as inconclusive [inhibitor, partial curve, poor fit]. In the case of COc1ccccc1/C=C/C1(C(=O)NC2CCCC2)CC(=O)N1c1ccc(C)cc1 (centres undefined), the Potency is reported as inconclusive [inhibitor, partial curve, poor fit]. With COc1cc(Cl)c(C)cc1NC(=O)CCc1nc2cccnc2n1-c1ccccc1 the “activity change, negative = inhibition” value was inactive: 12.4%. For Cc1cc(C)n(-c2ccc(C(=O)Nc3cccc(S(=O)(=O)N4CCCC4)c3)cc2)n1, the Potency was inconclusive [inhibitor, partial curve, poor fit].

Source: PubChem BioAssay AID624417 (National Center for Advancing Translational Sciences (NCATS), 2012)
% is set by controls: 0 for no effect and ±100 for the full control effect; potency is the fitted concentration of half-maximal effect; tags give direction and shape of the fitted curve.
Note: nearly all actives have a fitted effect of over 55% in size.
